From paper PMC3642088, “Phosphorylation of CDK9 at Ser175 Enhances HIV Transcription and Is a Marker of Activated P-TEFb in CD4^+ T Lymphocytes” (PLoS Pathogens, 2013)
No constants are given. Whether binding was seen depends on the method and setting. Binding seen in cells or lysates may run through a third protein. Some results given as binding are weak or reduced against the parent protein; the word gives no strength.

Sequences of proteins named here, by UniProt entry; tags and fusion partners are left off. A change or cut given only in a name is not applied to a line headed by its entry.
UniProt P50750: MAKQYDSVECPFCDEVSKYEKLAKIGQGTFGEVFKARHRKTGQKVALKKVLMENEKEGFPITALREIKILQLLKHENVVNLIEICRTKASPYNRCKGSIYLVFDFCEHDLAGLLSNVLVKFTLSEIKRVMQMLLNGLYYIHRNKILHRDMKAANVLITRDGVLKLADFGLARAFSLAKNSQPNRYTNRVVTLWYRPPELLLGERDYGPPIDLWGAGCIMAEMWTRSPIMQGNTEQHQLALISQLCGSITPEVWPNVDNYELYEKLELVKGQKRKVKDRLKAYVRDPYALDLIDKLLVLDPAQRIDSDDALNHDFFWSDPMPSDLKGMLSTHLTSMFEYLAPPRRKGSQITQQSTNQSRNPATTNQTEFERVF

Experiments:
FLAG-CDK9 T186A = target: T1, FLAG-CDK9 T186A (human, UniProt P50750 1-372, T186A); experiment: co-IP; anti-FLAG M2 agarose IP of FLAG-CDK9 wildtype or mutants from whole cell extracts (lysis buffer A) of Jurkat 2D10 cells, FLAG peptide elution, Western blot; densitometry normalised to total immunoprecipitated CDK9, five experiments
T1 construct: also called T186A CDK9

FLAG-CDK9 T186D = target: T2, FLAG-CDK9 T186D (human, UniProt P50750 1-372, T186D); experiment: as above
T2 construct: also called T186D CDK9

FLAG-HEXIM1 = FLAG-HEXIM1 (UniProt O94992); experiment: co-IP; anti-FLAG IP of FLAG-HEXIM1 from whole cell extracts of 2D10 cells, unstimulated or PMA for 1 h with or without U0126, FLAG peptide elution, Western blot
[1] = target: FLAG-CDK9 isoform 1, wild type (human) (UniProt P50750); experiment: co-IP; anti-FLAG M2 agarose IP of FLAG-CDK9 wildtype or mutants from whole cell extracts (lysis buffer A) of Jurkat 2D10 cells, FLAG peptide elution, Western blot; densitometry normalised to total immunoprecipitated CDK9, five experiments

| binding (FLAG-CDK9 T186A) | binding (FLAG-CDK9 T186D) | binding (FLAG-HEXIM1) | binding [1] | Binder |
| --- | --- | --- | --- | --- |
| no binding (tested: reduced by over 99%) | no binding (tested: reduced by over 99%) | binds | binds | LARP7 (natural protein, human (endogenous in Jurkat), UniProt Q4G0J3 1-582, looked up, source: endogenous, Jurkat T-cell whole cell extract) METESGNQEKVMEEESTEKKKEVEKKKRSRVKQVLADIAKQVDFWFGDANLHKDRFLREQIEKSRDGYVDISLLVSFNKMKKLTTDGKLIARALRSSAVVELDLEGTRIRRKKPLGERPKDEDERTVYVELLPKNVNHSWIERVFGKCGNVVYISIPHYKSTGDPKGFAFVEFETKEQAAKAIEFLNNPPEEAPRKPGIFPKTVKNKPIPALRVVEEKKKKKKKKGRMKKEDNIQAKEENMDTSNTSISKMKRSRPTSEGSDIESTEPQKQCSKKKKKRDRVEASSLPEVRTGKRKRSSSEDAESLAPRSKVKKIIQKDIIKEASEASKENRDIEISTEEEKDTGDLKDSSLLKTKRKHKKKHKERHKMGEEVIPLRVLSKSEWMDLKKEYLALQKASMASLKKTISQIKSESEMETDSGVPQNTGMKNEKTANREECRTQEKVNATGPQFVSGVIVKIISTEPLPGRKQVRDTLAAISEVLYVDLLEGDTECHARFKTPEDAQAVINAYTEINKKHCWKLEILSGDHEQRYWQKILVDRQAKLNQPREKKRGTEKLITKAEKIRLAKTQQASKHIRFSEYD |
| no binding (tested: reduced by over 99%) | no binding (tested: reduced by over 99%) | – | – | HEXIM1 (natural protein, human (endogenous in Jurkat), UniProt O94992 1-359, looked up, source: endogenous, Jurkat T-cell whole cell extract) MAEPFLSEYQHQPQTSNCTGAAAVQEELNPERPPGAEERVPEEDSRWQSRAFPQLGGRPGPEGEGSLESQPPPLQTQACPESSCLREGEKGQNGDDSSAGGDFPPPAEVEPTPEAELLAQPCHDSEASKLGAPAAGGEEEWGQQQRQLGKKKHRRRPSKKKRHWKPYYKLTWEEKKKFDEKQSLRASRIRAEMFAKGQPVAPYNTTQFLMDDHDQEEPDLKTGLYSKRAAAKSDDTSDDDFMEEGGEEDGGSDGMGGDGSEFLQRDFSETYERYHTESLQNMSKQELIKEYLELEKCLSRMEDENNRLRLESKRLGGDDARVRELELELDRLRAENLQLLTENELHRQQERAPLSKFGD |
